This is one part of the list. Antibody binding of pooled human sera (four to six donors per pool; dilution not stated) to peptides of the Trypanosoma cruzi antigen TSSA on microarrays. Quantile-normalised fluorescence in arbitrary units, mean of duplicate arrays; higher = more binding. No active / inactive call. The uninfected pools are read here as the healthy donors of the same country. The strongest signals lie near the top of the scale (about 60,000).
Assays:
Experiment in all cases: antibody binding signal (normalised fluorescence) (arbitrary fluorescence units); higher = stronger serum antibody binding to peptide
[1] = tested on: pooled sera of chronic Chagas disease patients, Argentina
Method: (§1)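 Microarray of 15-residue peptides over residues 30-55 of Trypanosoma cruzi TSSAII, each with 1 to 10 substitutions at naturally variable positions, probed with one serum pool per country.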

[2] = tested on: pooled sera of chronic Chagas disease patients, Bolivia
Method: as §1

[3] = tested on: pooled sera of chronic Chagas disease patients, Brazil
Method: as §1

[4] = tested on: pooled sera of chronic Chagas disease patients, Colombia
Method: as §1

[5] = tested on: pooled sera of chronic Chagas disease patients, Mexico
Method: as §1

[6] = tested on: pooled sera of chronic Chagas disease patients, USA
Method: as §1

[7] = tested on: pooled sera of uninfected people, Argentina
Method: as §1

[8] = tested on: pooled sera of uninfected people, Bolivia
Method: as §1

[9] = tested on: pooled sera of uninfected people, Brazil
Method: as §1

[10] = tested on: pooled sera of uninfected people, Mexico
Method: as §1

[11] = tested on: pooled sera of uninfected people, USA
Method: as §1

Row | Sequence | antibody binding signal [1] | antibody binding signal [2] | antibody binding signal [3] | antibody binding signal [4] | antibody binding signal [5] | antibody binding signal [6] | antibody binding signal [7] | antibody binding signal [8] | antibody binding signal [9] | antibody binding signal [10] | antibody binding signal [11]
1 | GTEKKTATGETPSQS | 973 | 754 | 2630 | 545 | 805 | 7510 | 271 | 571 | 238 | 157 | 132
2 | GTEKKTAAGGAPSQS | 707 | 1270 | 277 | 7040 | 1540 | 1820 | 201 | 567 | 260 | 359 | 129
3 | SGKEKKTAAGEAPSQ | 5780 | 6280 | 5700 | 3320 | 7640 | 8840 | 296 | 174 | 94.4 | 178 | 104
4 | KDNKPATGGTPSQPG | 325 | 209 | 11600 | 563 | 260 | 461 | 500 | 421 | 382 | 388 | 128
5 | EKKTAAGGTPSQPGA | 441 | 479 | 424 | 9710 | 430 | 1770 | 292 | 642 | 822 | 512 | 752
6 | TDKKAAAGGAPSPSG | 1340 | 290 | 271 | 5760 | 875 | 776 | 175 | 145 | 178 | 310 | 136
7 | SGKENKAATGETPSQ | 4880 | 6270 | 27000 | 1750 | 2120 | 18000 | 8100 | 3410 | 204 | 464 | 255
8 | GTDNKAAAGGAPSPS | 293 | 255 | 28700 | 3440 | 344 | 502 | 237 | 723 | 1610 | 170 | 235
9 | NKPAAGETPSQSGAS | 247 | 4080 | 22900 | 240 | 214 | 1900 | 405 | 788 | 478 | 369 | 963
10 | TEKKPAAGETPSQPG | 1690 | 1990 | 33800 | 310 | 312 | 3540 | 85.1 | 386 | 310 | 190 | 555
11 | GTENKAAAGEAPSPS | 34900 | 2140 | 14600 | 466 | 724 | 12200 | 125 | 225 | 157 | 95.4 | 116
12 | SGTDKKPATGGTPSQ | 2230 | 1540 | 28600 | 12900 | 2730 | 1400 | 317 | 549 | 1120 | 1810 | 266
13 | SGTDKKTATGGTPSQ | 1850 | 860 | 1730 | 7530 | 1280 | 1840 | 421 | 185 | 274 | 424 | 209
14 | GTDKKPAAGETPSPP | 388 | 1380 | 9350 | 6830 | 597 | 2210 | 134 | 355 | 163 | 538 | 349
15 | KDNKTAAGEAPSQSG | 910 | 5110 | 5850 | 1970 | 213 | 4560 | 462 | 178 | 170 | 111 | 161
16 | KEKKPAAGEAPSQSG | 287 | 3790 | 8050 | 167 | 222 | 10000 | 109 | 80.4 | 105 | 89.6 | 343
17 | GTENKTAAGEAPSPP | 25600 | 811 | 5610 | 630 | 971 | 9250 | 193 | 361 | 212 | 151 | 125
18 | KENKTATGETPSPPG | 535 | 585 | 3290 | 551 | 269 | 7070 | 156 | 219 | 221 | 158 | 1230
19 | KKTATGGTPSQSGAS | 346 | 259 | 233 | 776 | 242 | 1110 | 359 | 113 | 158 | 381 | 249
20 | DKKTAAGGAPSPSGA | 587 | 749 | 191 | 7330 | 869 | 685 | 244 | 89.2 | 142 | 300 | 135
21 | TDKKAAAGEAPSPPG | 737 | 678 | 8420 | 375 | 281 | 11100 | 151 | 93.7 | 137 | 131 | 164
22 | PSGKDNKTATGGTPS | 2470 | 580 | 3630 | 5570 | 4900 | 3890 | 267 | 139 | 121 | 100 | 125
23 | TENKTAAGGTPSQPG | 25000 | 544 | 792 | 4400 | 329 | 1580 | 455 | 174 | 924 | 2490 | 164
24 | PSGTENKTATGEAPS | 39200 | 35900 | 42600 | 838 | 1230 | 29000 | 1090 | 398 | 248 | 299 | 372
25 | TDKKPAAGGTPSPSG | 494 | 182 | 527 | 5350 | 284 | 1010 | 93.1 | 818 | 2310 | 93.8 | 274
26 | SGKDNKTAAGEAPSQ | 1290 | 8240 | 8570 | 4200 | 1260 | 8080 | 270 | 275 | 167 | 131 | 181
27 | SGTEKKAATGGTPSQ | 2170 | 811 | 1560 | 1110 | 1400 | 1970 | 283 | 601 | 719 | 171 | 203

Row | Sequence | antibody binding signal [1] | antibody binding signal [2] | antibody binding signal [3] | antibody binding signal [4] | antibody binding signal [5] | antibody binding signal [6] | antibody binding signal [7] | antibody binding signal [8] | antibody binding signal [9] | antibody binding signal [10] | antibody binding signal [11]
28 | ENKTATGEAPSPPGA | 13100 | 33600 | 21000 | 223 | 490 | 21000 | 129 | 98.5 | 206 | 89.6 | 116
29 | PSGTEKKAATGEAPS | 23800 | 28400 | 22400 | 1060 | 1350 | 25100 | 843 | 309 | 335 | 258 | 400
30 | TPPSGKDKKAAAGEA | 1530 | 485 | 629 | 695 | 30100 | 793 | 209 | 402 | 109 | 78.3 | 102
31 | EKKPATGETPSPPGA | 30600 | 23800 | 30000 | 269 | 208 | 20800 | 166 | 578 | 235 | 1680 | 787
32 | PPSGKENKPAAGGTP | 13000 | 3180 | 3310 | 2310 | 4910 | 11400 | 4800 | 2130 | 439 | 227 | 525
33 | SGTDKKPATGEAPSP | 50600 | 52300 | 47200 | 4590 | 429 | 40300 | 933 | 690 | 242 | 2560 | 310
34 | PSGTEKKTATGEAPS | 17400 | 21200 | 13700 | 1430 | 1600 | 22500 | 413 | 346 | 416 | 267 | 436
35 | PPSGTEKKPAAGETP | 38600 | 24600 | 38400 | 861 | 7410 | 7000 | 1160 | 691 | 1050 | 325 | 486
36 | KENKPAAGEAPSPPG | 665 | 359 | 29300 | 340 | 441 | 13900 | 195 | 283 | 160 | 116 | 109
37 | KENKTAAGGTPSQSG | 529 | 318 | 336 | 2360 | 353 | 1280 | 306 | 94.2 | 259 | 552 | 152
38 | TENKAAAGEAPSPPG | 33600 | 749 | 27000 | 310 | 176 | 12500 | 125 | 89.3 | 141 | 95.3 | 119
39 | GTDNKAATGETPSQS | 3880 | 4980 | 36700 | 211 | 218 | 14100 | 88.7 | 555 | 1310 | 170 | 78.6
40 | KENKPATGGAPSPSG | 540 | 1850 | 2900 | 202 | 636 | 2560 | 366 | 806 | 133 | 124 | 190
41 | PPSGTEKKTAAGGTP | 32900 | 4420 | 12300 | 14200 | 3250 | 3890 | 857 | 375 | 1110 | 612 | 482
42 | GKDNKAATGEAPSQP | 26200 | 24300 | 43100 | 3280 | 4090 | 25100 | 279 | 274 | 141 | 74.7 | 98.2
43 | TISTPPSGKDNKPAT | 15800 | 5350 | 29000 | 408 | 20900 | 13500 | 416 | 1370 | 394 | 146 | 300
44 | NKAAAGETPSPSGAS | 241 | 844 | 10600 | 295 | 470 | 1520 | 438 | 824 | 539 | 470 | 929
45 | STPPSGTEKKTATGG | 40000 | 12100 | 27400 | 5070 | 8310 | 5660 | 975 | 418 | 182 | 213 | 269
46 | TPPSGTDKKPATGET | 25600 | 32200 | 43500 | 8430 | 31400 | 5150 | 572 | 467 | 464 | 5670 | 1600
47 | PSGKEKKPAAGGAPS | 9280 | 2200 | 8060 | 10800 | 11400 | 7870 | 332 | 355 | 118 | 88 | 189
48 | SGTEKKTATGETPSP | 568 | 819 | 1240 | 395 | 298 | 7490 | 341 | 420 | 185 | 198 | 626
49 | GTENKTAAGETPSPP | 30900 | 772 | 1080 | 1840 | 2740 | 2980 | 206 | 400 | 159 | 232 | 439
50 | KDNKAAAGETPSPSG | 303 | 227 | 2520 | 232 | 204 | 1380 | 355 | 1760 | 155 | 148 | 1620
51 | PPSGTEKKAATGEAP | 28500 | 34300 | 25100 | 593 | 1680 | 25100 | 1020 | 349 | 290 | 175 | 242
52 | TPPSGKENKPATGEA | 33400 | 35600 | 30600 | 410 | 3410 | 23000 | 1750 | 1790 | 361 | 374 | 476
53 | SGTDNKPAAGGAPSQ | 2760 | 2020 | 45900 | 5000 | 427 | 573 | 199 | 844 | 394 | 440 | 276
